Assay results taken from the supplement of paper PMC8728848.
Some of the results follow.

Key:
Experiment in all cases: glycan array binding signal (z-score within array); higher = stronger binding
Conditions in all cases: glycan notation: IUPAC condensed, linker removed; mutation: N288D, K313I
[1] = biological target: Gal(a1-6)Glc
In short: (§1)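 Glycan array data came from 3228 arrays in the Consortium for Functional Glycomics database, and only arrays with an available protein sequence were kept. Glycan names were put into IUPAC-condensed notation, and columns mapping to the same glycan were averaged. The binding signal is a within-array Z-score, averaged across arrays of one protein sequence run at different concentrations or buffers and across linkers. A negative Z-score can be read as non-binding.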

[2] = biological target: Gal(b1-2)Gal
In short: as §1

[3] = biological target: Gal(b1-3)Gal
In short: as §1

[4] = biological target: Gal(b1-3)Gal(b1-4)GlcNAc
In short: as §1

[5] = biological target: Gal(b1-3)GalNAc
In short: as §1

[6] = biological target: Gal(b1-3)GalNAc(a1-3)[Fuc(a1-2)]Gal(b1-4)Glc
In short: as §1

[7] = biological target: Gal(b1-3)GalNAc(a1-3)[Fuc(a1-2)]Gal(b1-4)GlcNAc
In short: as §1

[8] = biological target: Gal(b1-3)GalNAc(b1-3)Gal
In short: as §1

[9] = biological target: Gal(b1-3)GalNAc(b1-3)Gal(a1-4)Gal(b1-4)Glc
In short: as §1

[10] = biological target: Gal(b1-3)GalNAc(b1-4)Gal(b1-4)Glc
In short: as §1

[11] = biological target: Gal(b1-3)GalNAc(b1-4)[Neu5Ac(a2-3)]Gal(b1-4)Glc
In short: as §1

[12] = biological target: Gal(b1-3)GlcNAc
In short: as §1

[13] = biological target: Gal(b1-3)GlcNAc(a1-3)Gal(b1-4)GlcNAc
In short: as §1

[14] = biological target: Gal(b1-3)GlcNAc(a1-6)Gal(b1-4)GlcNAc
In short: as §1

[15] = biological target: Gal(b1-3)GlcNAc(b1-2)Man
In short: as §1

[16] = biological target: Gal(b1-3)GlcNAc(b1-2)Man(a1-3)[Gal(b1-3)GlcNAc(b1-2)Man(a1-6)]Man(b1-4)GlcNAc(b1-4)GlcNAc
In short: as §1

[17] = biological target: Gal(b1-3)GlcNAc(b1-2)Man(a1-3)[Gal(b1-3)GlcNAc(b1-2)Man(a1-6)]Man(b1-4)GlcNAc(b1-4)[Fuc(a1-6)]GlcNAc
In short: as §1

[18] = biological target: Gal(b1-3)GlcNAc(b1-2)Man(a1-3)[GlcNAc(b1-4)][Gal(b1-3)GlcNAc(b1-2)Man(a1-6)]Man(b1-4)GlcNAc(b1-4)GlcNAc
In short: as §1

[19] = biological target: Gal(b1-3)GlcNAc(b1-2)[Gal(b1-3)GlcNAc(b1-6)]Man(a1-6)[Gal(b1-3)GlcNAc(b1-2)Man(a1-3)]Man(b1-4)GlcNAc(b1-4)GlcNAc
In short: as §1

[20] = biological target: Gal(b1-3)GlcNAc(b1-3)Gal(b1-3)GlcNAc
In short: as §1

[21] = biological target: Gal(b1-3)GlcNAc(b1-3)Gal(b1-4)Glc
In short: as §1

[22] = biological target: Gal(b1-3)GlcNAc(b1-3)Gal(b1-4)GlcNAc
In short: as §1

[23] = biological target: Gal(b1-3)GlcNAc(b1-3)Gal(b1-4)GlcNAc(b1-2)Man(a1-3)[Gal(b1-3)GlcNAc(b1-3)Gal(b1-4)GlcNAc(b1-2)Man(a1-6)]Man(b1-4)GlcNAc(b1-4)GlcNAc
In short: as §1

[24] = biological target: Gal(b1-3)GlcNAc(b1-3)Gal(b1-4)GlcNAc(b1-2)[Gal(b1-3)GlcNAc(b1-3)Gal(b1-4)GlcNAc(b1-6)]Man(a1-6)[Gal(b1-3)GlcNAc(b1-3)Gal(b1-4)GlcNAc(b1-2)Man(a1-3)]Man(b1-4)GlcNAc(b1-4)[Fuc(a1-6)]GlcNAc
In short: as §1

[25] = biological target: Gal(b1-3)GlcNAc(b1-3)Gal(b1-4)GlcNAc(b1-3)Gal(b1-4)GlcNAc(b1-2)[Gal(b1-3)GlcNAc(b1-3)Gal(b1-4)GlcNAc(b1-3)Gal(b1-4)GlcNAc(b1-6)]Man(a1-6)[Gal(b1-3)GlcNAc(b1-3)Gal(b1-4)GlcNAc(b1-3)Gal(b1-4)GlcNAc(b1-2)Man(a1-3)]Man(b1-4)GlcNAc(b1-4)[Fuc(a1-6)]GlcNAc
In short: as §1

[26] = biological target: Gal(b1-3)GlcNAc(b1-3)Gal(b1-4)GlcNAc(b1-6)[Gal(b1-3)GlcNAc(b1-3)]Gal(b1-4)Glc
In short: as §1

[27] = biological target: Gal(b1-3)GlcNAc(b1-3)Gal(b1-4)[Fuc(a1-3)]GlcNAc
In short: as §1

[28] = biological target: Gal(b1-3)GlcNAc(b1-3)Gal(b1-4)[Fuc(a1-3)]GlcNAc(b1-6)[Gal(b1-3)GlcNAc(b1-3)]Gal(b1-4)Glc
In short: as §1

[29] = biological target: Gal(b1-3)GlcNAc(b1-3)GalNAc
In short: as §1

[30] = biological target: Gal(b1-3)GlcNAc(b1-6)Gal(b1-4)GlcNAc
In short: as §1

[31] = biological target: Gal(b1-3)GlcNAc(b1-6)GalNAc
In short: as §1

[32] = biological target: Gal(b1-3)GlcNAc(b1-6)[Gal(b1-3)]GalNAc
In short: as §1

[33] = biological target: Gal(b1-3)GlcNAc6S
In short: as §1

[34] = biological target: Gal(b1-3)[Fuc(a1-4)]GlcNAc
In short: as §1

[35] = biological target: Gal(b1-3)[Fuc(a1-4)]GlcNAc(b1-2)Man
In short: as §1

[36] = biological target: Gal(b1-3)[Fuc(a1-4)]GlcNAc(b1-2)Man(a1-3)[Gal(b1-3)[Fuc(a1-4)]GlcNAc(b1-2)Man(a1-6)]Man(b1-4)GlcNAc(b1-4)[Fuc(a1-6)]GlcNAc
In short: as §1

[37] = biological target: Gal(b1-3)[Fuc(a1-4)]GlcNAc(b1-3)Gal(b1-3)[Fuc(a1-4)]GlcNAc
In short: as §1

[38] = biological target: Gal(b1-3)[Fuc(a1-4)]GlcNAc(b1-3)Gal(b1-4)[Fuc(a1-3)]GlcNAc
In short: as §1

[39] = biological target: Gal(b1-3)[Fuc(a1-4)]GlcNAc(b1-6)GalNAc
In short: as §1

[40] = biological target: Gal(b1-3)[GlcNAc(b1-6)]GalNAc
In short: as §1

[41] = biological target: Gal(b1-3)[Neu5Ac(a2-6)]GalNAc
In short: as §1

[42] = biological target: Gal(b1-3)[Neu5Ac(a2-6)]GlcNAc(b1-4)Gal(b1-4)Glc
In short: as §1

[43] = biological target: Gal(b1-3)[Neu5Ac(b2-6)]GalNAc
In short: as §1

[44] = biological target: Gal(b1-4)Gal
In short: as §1

[45] = biological target: Gal(b1-4)GalNAc(a1-3)[Fuc(a1-2)]Gal(b1-4)GlcNAc
In short: as §1

B1: Langerin (Homo sapiens), Q9UJ71 (protein)
chain: STLNAQIPELKSDLEKASALNTKIRALQGSLENMSKLLKRQNDILQVVSQGWKYFKGNFYYFSLIPKTWYSAEQFCVSRNSHLTSVTSESEQEFLYKTAGGLIYWIGLTKAGMEGDWSWVDDTPFNKVQSARFWIPGEPNDAGNNEHCGNIKAPSLQAWNDAPCDITFLFICKRPYVPSEP
glycan array binding signal (z-score) [1]: -0.032 | glycan array binding signal (z-score) [2]: -0.153 | glycan array binding signal (z-score) [3]: -0.11 | glycan array binding signal (z-score) [4]: -0.366 | glycan array binding signal (z-score) [5]: -0.221 | glycan array binding signal (z-score) [6]: -0.171 | glycan array binding signal (z-score) [7]: -0.246 | glycan array binding signal (z-score) [8]: -0.221 | glycan array binding signal (z-score) [9]: -0.043 | glycan array binding signal (z-score) [10]: -0.063 | glycan array binding signal (z-score) [11]: -0.17 | glycan array binding signal (z-score) [12]: -0.17 | glycan array binding signal (z-score) [13]: -0.321 | glycan array binding signal (z-score) [14]: -0.25 | glycan array binding signal (z-score) [15]: -0.223 | glycan array binding signal (z-score) [16]: 0.101 | glycan array binding signal (z-score) [17]: -0.098 | glycan array binding signal (z-score) [18]: 0.469 | glycan array binding signal (z-score) [19]: 0.147 | glycan array binding signal (z-score) [20]: -0.248 | glycan array binding signal (z-score) [21]: -0.292 | glycan array binding signal (z-score) [22]: -0.275 | glycan array binding signal (z-score) [23]: 0.441 | glycan array binding signal (z-score) [24]: 5.7 | glycan array binding signal (z-score) [25]: 7.74 | glycan array binding signal (z-score) [26]: -0.218 | glycan array binding signal (z-score) [27]: -0.264 | glycan array binding signal (z-score) [28]: -0.241 | glycan array binding signal (z-score) [29]: 0.097 | glycan array binding signal (z-score) [30]: -0.29 | glycan array binding signal (z-score) [31]: -0.138 | glycan array binding signal (z-score) [32]: 0.13 | glycan array binding signal (z-score) [33]: -0.276 | glycan array binding signal (z-score) [34]: -0.263 | glycan array binding signal (z-score) [35]: 0.02 | glycan array binding signal (z-score) [36]: 0.476 | glycan array binding signal (z-score) [37]: -0.072 | glycan array binding signal (z-score) [38]: 0.008 | glycan array binding signal (z-score) [39]: -0.017 | glycan array binding signal (z-score) [40]: -0.203 | glycan array binding signal (z-score) [41]: -0.085 | glycan array binding signal (z-score) [42]: -0.173 | glycan array binding signal (z-score) [43]: -0.073 | glycan array binding signal (z-score) [44]: -0.053 | glycan array binding signal (z-score) [45]: -0.324
